The results in this text go back to PubChem BioAssay AID1240 (Sanford-Burnham Center for Chemical Genomics, 2008).

Hit rate of the full screen: of about 50,000 compounds, about 800 (1.6%) showed an effect of 50% or more. The list shows a part of the results.

This test has as its target Bcl-2-like protein 10 (Homo sapiens) (UniProt Q9HD36). The experiment in a line: Phenotype converters, Bcl-B/TR3 peptide binding displacement, primary biochemical FP (AID 1240).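 Also: 0% = Bcl-B with tracer peptide and DMSO and 100% = tracer peptide lacking Bcl-B.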 To be noted: GST-Bcl-B / FITC-TR3 peptide fluorescence polarization; stronger effect = higher value; compound at 3.75 mg/L.
Sequence of UniProt Q9HD36 (Q9HD36 whole entry, looked up): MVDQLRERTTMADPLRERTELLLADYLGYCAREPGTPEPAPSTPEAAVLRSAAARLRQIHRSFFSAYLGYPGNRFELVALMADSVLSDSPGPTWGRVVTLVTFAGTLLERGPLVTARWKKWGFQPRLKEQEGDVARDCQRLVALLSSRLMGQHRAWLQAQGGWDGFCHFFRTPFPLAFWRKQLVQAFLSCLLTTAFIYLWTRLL
Take `CC1C(=O)C(C)C(c2ccc3c(c2)OCO3)NC1c1ccc2c(c1)OCO2` (stereo not given): the displacement was -8.4%.
As for `CCOC(=O)C1=C(c2ccccc2)N=c2s/c(=C\c3cccnc3)c(=O)n2C1c1cc(OC)ccc1OC` (stereo not given), the displacement is -3%.
Then `O=C(Nc1cccc2ccccc12)N(Cc1ccccc1)Cc1ccccc1`, with -9%; and `CSc1ccccc1NC(=O)c1nn2c(c1Br)NC(c1ccccc1)CC2C(F)(F)F` (stereo not given), with 2.7%; and `S=C(Nc1ccccc1)Nc1ccc(Nc2ccccc2)cc1`, with -3.1%.
Then `CC(C)(C)C#C/C=N/n1nnc(-c2ccccc2)n1`, with 13.6%.
Regarding `CC1(C)Cc2ccccc2C(NN=C2CCCCC2)=N1`, the displacement was -7.3%.
For `O=C(N/C(=C/c1ccc2c(c1)OCO2)C(=O)N1CCOCC1)c1ccco1`, the displacement is 6.1%.
For `C/C(=N\Nc1nnc2c(n1)[nH]c1ccccc12)c1ccccn1` the value was 21.4%; for `Cc1ccc(OCC(=O)Nc2nc(-c3ccccc3)cs2)cc1C`, -7.3%; for `Fc1ccc(COC(CN2CCCCC2)CN2CCCCC2)cc1`, 0.1%.
For the compound `O=C(N/C(=C/c1ccc(Br)cc1)C(=O)N1CCCC1)c1cccs1`, the displacement is -11.3%.
Then `C=CCN1C(=O)C(Cc2ccc(OC)cc2)S/C1=N\N=C\c1cccs1` (stereo not given), with 12.8%; and `CCN1C(=O)/C(=C/c2cccs2)SC1=S`, with -2.3%.
Turning to `O=C(Nc1ccc2nn(-c3ccc(Cl)cc3)nc2c1)c1ccc2c(c1)OCCO2`, the displacement is 13.1%.
Then `COc1cccc(OCCCCN2CCC(C)CC2)c1`, with -6%; and `COc1cccc(/C=C2\SC(=S)N(CC(=O)Nc3nccs3)C2=O)c1`, with 49.7%; and `COc1cccc(/C=C/C2=NN(c3ccc(F)cc3)C(c3cccc(OC)c3OC)C2)c1OC` (stereo not given), with 7.8%.
As for `CCOC(=O)c1cccc(N2C(=O)C3C4C=CC(C4)C3C2=O)c1` (stereo not given), the displacement is -6.9%.
For `Cc1ccccc1NCC(=O)N/N=C\c1ccccc1O` the value was -13.3%.
For `CCC(C)NC(=O)Nc1ccc(Cl)cc1` (stereo not given), the displacement is 2.7%.
As to `N#Cc1c(N)sc2c1CCCCCC2`, the displacement is 18.3%.
As for `O=C(Nc1ccc(Nc2ccccc2)cc1)c1ccc(Cl)cc1Cl`, the displacement was -13.5%.
Then `Cc1ccc(C(=O)O)cc1NC(=O)C1C2CCC(C2)C1C(=O)O` (stereo not given), with -2.4%; and `COc1ccc(N(CC(=O)O)S(=O)(=O)c2ccc(C)cc2)c(OC)c1`, with 2.5%; and `Cc1ccc(S(=O)(=O)NC(C)(C)CN2CCCCC2)cc1`, with -2.6%.
For `CCOc1ccc(C(=O)Nc2cc(OC)ccc2OC)cc1[N+](=O)[O-]` the value was 7.8%; for `O=C(Nc1ccc(Cl)c(Cl)c1)Nc1nnc(SCc2ccccc2)s1`, 3.9%; for `O=C(NC1CC1)c1cc(-c2cccs2)nc2ccccc12`, -3.9%.
Then `Cc1ccc(OCC(=O)N/N=C\c2ccc(-c3ccc(Cl)cc3)o2)cc1`, with 38.4%.
Consider `Cc1cc(OCC(=O)Nc2ccc([N+](=O)[O-])cc2)cc(C)c1Cl`, for which the displacement was 26.7%.
Then `O=C(Cc1ccccc1)NCc1ccco1`, with -2.5%; and `Cc1ccc(C(=O)Nc2cc(-c3ccc(F)cc3)[nH]n2)cc1`, with 11.8%; and `O=C(O)CCCCCN1C(=O)C(O)=C(C(=O)/C=C/c2ccccc2)C1c1ccc([N+](=O)[O-])cc1` (stereo not given), with -4.6%.
Take `Cc1c(N=Cc2cccc(Cl)c2)cccc1[N+](=O)[O-]`: the displacement stood at 10.3%.
Then `NC(=O)C1CCN(C(=O)COc2ccc(Br)cc2)CC1`, with -0.3%; and `COc1ccc(OCC2CNC(=O)O2)cc1` (stereo not given), with -8.5%.
For `COc1cc(NS(=O)(=O)c2ccc(NC(=S)NC(=O)/C=C/c3ccc(F)cc3)cc2)ncn1` the value was 18.6%; for `COc1cc(/C=C(\C#N)C(=O)Nc2cccc(Cl)c2)ccc1O`, -56.2%; for `COc1cc(/C=N/n2cnnc2)cc(OC)c1O`, 9.4%.
On to `O=C(CSc1nc2ccc([N+](=O)[O-])cc2s1)NCc1ccccc1`, for which the displacement was -7.6%.
Regarding `CC(=O)Nc1ccc(N=Cc2ccc(Cl)c([N+](=O)[O-])c2)cc1`, the displacement was -3%.
For `O=[N+]([O-])c1ccc(NCCCNS(=O)(=O)c2ccccc2)c(C(F)(F)F)c1` the value was 10.5%; for `O=S(=O)(N/N=C/c1ccc(Br)cc1)c1ccccc1`, 5.1%; for `C/C(=N\Nc1nc(-c2ccccc2)nc(C)c1C)c1cccc([N+](=O)[O-])c1`, -11.6%.
Then `CCC(=O)Nc1cc2nn(-c3ccc(OC)cc3)nc2cc1C`, with 4.7%; and `Cc1cc(C(=O)Oc2ccc(Cl)cc2)ccc1[N+](=O)[O-]`, with 1.3%; and `Cc1ccc(-c2ccc(OCC(=O)Nc3ccc(S(=O)(=O)Nc4nccs4)cc3)cc2)cc1`, with -13.2%.
Then `O=C(NCCNc1ccc([N+](=O)[O-])cc1)c1ccccc1F`, with 10%.
On to `O=C(/C=C/c1ccc(OC2CSC2)cc1)c1ccccc1`, for which the displacement came to 5.2%.
In the case of `CCOC(=O)c1c(N)sc2c1CC(C)(C)NC2(C)C`, the displacement was found to be 11.2%.
Then `COc1cccc(-c2cc(C(=O)NC(C)c3ccccc3)c3ccccc3n2)c1` (stereo not given), with 33.6%.
For `CC(=O)Nc1nc(-c2ccc(C)c(C)c2)cs1` the value was 8.1%; for `COc1ccc2c(=O)c(Oc3ccccc3Br)c(C(F)(F)F)oc2c1`, 14.1%; for `O=C(c1sc2ccccc2c1Cl)N1CCC(Cc2ccccc2)CC1`, 6.5%.
`COC(=O)c1sccc1NC(=O)c1cccc(Cl)c1`: the displacement is -8.6%.
Then `Cc1ccc(N2C(=O)CSC2c2ccc(F)cc2)cc1` (stereo not given), with -5.1%; and `N#C/C(=C/c1cccnc1)C(=O)Nc1cccc(Br)c1`, with -15.9%; and `CS(=O)(=O)N(CC(N)=O)c1cccc(Cl)c1`, with -9.8%.
For `COCCNC(=O)C(=O)NCc1ccc(C)cc1` the value was 5.4%; for `CC(Nc1cccc2ccccc12)C(=O)N/N=C/c1ccc(O)cc1O` (stereo not given), -1.3%; for `O=C(Cc1ccccc1)N1N=C(c2ccccc2)CC1(O)C(F)(F)F` (stereo not given), 10.1%.
For `CCc1ccc(NC(=O)/C=C/c2ccc(OC)cc2)cc1` the value was -2.2%; for `O=C(CC(CC(=O)c1nc2ccccc2s1)c1ccccn1)c1nc2ccccc2s1`, 23.1%; for `O=C(CNC1CCCCC1)Nc1c2c(nc3ccccc13)CCC2`, -8.4%.
Take `O=C(NCCNc1ccc([N+](=O)[O-])cc1)c1cccc(Br)c1`: the displacement worked out at 16.4%.
Take `O=C1c2ccccc2NC(c2ccc(F)cc2)N1c1ccccc1` (stereo not given): the displacement is -14.5%.
For `COC(=O)c1ccc(-n2c(C)cc(/C=C3\C(=O)NC(=O)N(c4ccc(OC)cc4)C3=O)c2C)cc1`, the displacement was 115%.
Then `COc1cccc(/C=C2\SC(=S)N(NC(=O)c3ccncc3)C2=O)c1`, with -7.6%; and `CCN(CC)S(=O)(=O)c1ccc(NC(=O)c2ccc(Cl)cc2)cc1`, with -6.3%.
For `COc1cc(NC(C)=O)c(OC)cc1Cl` the value was -13.3%; for `CCCC(=O)NC(c1ccc([N+](=O)[O-])cc1)c1c(O)ccc2ccccc12` (stereo not given), -7.6%.
For `CN(C)c1ccc(NC(=O)C(N)=O)cc1` the value was 5.1%; for `O=[N+]([O-])c1ccc(-c2ccc(/C=C/c3ccncc3)o2)cc1`, 7.5%; for `COc1cc(OC)c(/C=C2\C(=O)NC(=O)N(c3ccc(Cl)cc3)C2=O)cc1Br`, 6.4%.
Turning to `Cc1ccc(S(=O)(=O)N2CCOCC2)cc1S(=O)(=O)N1CCOCC1`, the displacement was -5.8%.
Then `CC(C)(C)c1ccc(C(=O)NCCOCc2ccccc2)cc1`, with -8.4%.
With `Cc1[nH]nc2c1C(C1CC=CCC1)C(C#N)=C(N)O2` (stereo not given), the displacement was -4.6%.
For `Cc1nnc(C)n1/N=C/c1ccc(O)c(O)c1` the value was 15.9%; for `CC(Oc1ccc(Cl)cc1Cl)C(=O)NC12CC3CC(CC(C3)C1)C2` (stereo not given), -11.1%.
Then `O=C(NC(=S)Nc1cccc2ccccc12)c1ccco1`, with 11.2%; and `CN(C)c1ccc(-c2nc3ccccn3c2/N=C/c2cccc([N+](=O)[O-])c2O)cc1`, with 10.6%; and `COc1ccc(CCNC(=O)c2ccc(C(C)(C)C)cc2)cc1OC`, with -3.5%.
Consider `CC1=C(C(=O)Nc2ccccc2C)C(c2ccccc2)NC(=O)N1C` (stereo not given), for which the displacement came to 10.2%.
Consider `COc1c(Cl)cc(C(=O)Nc2ccc(Cc3ccncc3)cc2)cc1Cl`, for which the displacement is -12.1%.
`Cc1cc2nc(-c3cc(NC(=O)Cc4ccccc4)ccc3Cl)oc2cc1C`: the displacement stood at 9.5%.
Then `O=C(CCCN1C(=O)c2cccc3cccc(c23)C1=O)N1CCc2ccccc2C1`, with 8%.
For `O=C(CC(c1ccccc1)S(=O)(=O)c1ccccc1)c1ccccc1` (stereo not given) the value was 5.1%.
For `COc1ccc([N+](=O)[O-])cc1N(CC(O)CN1CCOCC1)S(=O)(=O)c1ccc(C)cc1` (stereo not given) the value was -1%; for `CN(C)c1ccc(C2/C(=C(/O)c3ccccc3)C(=O)C(=O)N2Cc2ccccc2)cc1` (stereo not given), 2%; for `O=C(NCCNc1ccc(Cl)cc1[N+](=O)[O-])c1ccc2c(c1)OCCO2`, -0.2%.
As to `O=S(=O)(Nc1nccs1)c1ccc2ccccc2c1`, the displacement is -4%.
For `O=C(NN=C1CCCCC1)c1ccc(O)cc1` the value was 8.3%.
Then `CC(C)CC(C(=O)O)N1C(=O)C2C3C=CC(C2C1=O)C1C(=O)N(C(CC(C)C)C(=O)O)C(=O)C31` (stereo not given), with -2.8%.
Then `CCc1cc(=O)oc2cc(C)cc(O)c12`, with 9.2%; and `COC(=O)c1c(C)oc2ccc(OCc3ccc(C)cc3)cc12`, with 5.9%; and `CCOc1cccc(-c2cc(C(=O)N3CCN(Cc4ccccc4)CC3)c3ccccc3n2)c1`, with -3.4%.
For the compound `COc1ccc(C2Nc3ccccc3NC3=C2C(=O)CC(c2ccc(Cl)cc2)C3)cc1OC` (stereo not given), the displacement was 9.5%.
For `COc1cccc(OC)c1C(=O)Nc1cccc(Oc2ccc3c(c2)C(=O)N(c2ccccc2)C3=O)c1` the value was 4.6%; for `O=C1c2ccccc2C(=O)N1CNc1ccc(Cc2ccc(NCN3C(=O)c4ccccc4C3=O)cc2)cc1`, 6.1%.
For `COc1ccc(C2CC(=O)C3=C(C2)Nc2ccccc2NC3c2cccc(Cl)c2Cl)cc1OC` (stereo not given) the value was 6.4%; for `O=C(NC1CCCCC1)c1cccc(Cl)c1`, 11.4%.
For `O=C1CC(c2cccc(C(F)(F)F)c2)c2ccc3ccccc3c2N1` (stereo not given) the value was -21.7%; for `CN1C(c2ccccc2)CC(=NO)CC1c1ccccc1` (stereo not given), -4.2%; for `COc1cc(/C=N/Nc2nc(N3CCOCC3)nc(N3CCOCC3)n2)cc(OC)c1`, 4.8%.
In the case of `Cc1c(Cl)cccc1NC(=O)c1ccccc1C(=O)O`, the displacement was -2.9%.
For `COc1ccc(NC(=O)c2cnn3c2NC(c2cccs2)CC3C(F)(F)F)cc1OC` (stereo not given) the value was 2.1%.
Then `CC1(C)CC(OC(=O)/C=C\C(=O)OC2CC(C)(C)NC(C)(C)C2)CC(C)(C)N1`, with -1.2%; and `CC(=O)N1CCN(c2ccc(C(=O)c3ccccc3)cc2F)CC1`, with 0.4%.
For `O=C(c1cnn2c1NC(c1ccc(Br)cc1)CC2C(F)(F)F)N1CCOCC1` (stereo not given) the value was 5.9%.
